What was measured:
[1] = format: binding; conditions: vs. Construct AAA and Construct NNN, respectively
Procedure: 96-well plates were coated with 10 μg/mL of Heparin-BSA conjugate (provided by Dr. Mueller, Boerhinger Ingelheim) or control BSA for 18-22 hours at room temperature on shaker (350 rpm). After washing, wells are blocked with 2% milk powder in PBS-0.05% Tween 20 or PBS-0.05% Tween 20/1% BSA for 90 minutes. The fusion proteins were then titrated in either 2% milk powder in PBS-0.05% Tween 20 or 1% BSA/PBS-0.05% Tween 20, pH 7.5 and/or pH 6, and added for 2 hours at room temperature with shaking. After washing, an anti-mouse IL-2 biotin-labelled detection antibody (JES6-5H4, ThermoFisher), anti-6×-His Tag HRP conjugate antibody (Invitrogen, 1 mg/mL, cat #MA1-21315-HRP), or anti-human IgG HRP conjugate antibody (SouthernBiotech) was added, and binding was detected using Ultra Streptavidin HRP (ThermoFisher). The plate was developed by adding the chromogenic tetramethylbenzidine substrate (Ultra TMB, ThermoFisher). The reaction was stopped by addition of 0.5 M H2SO4, and the absorbance was read at 450-650 nm. […] Moreover, when the same pH-dependent heparin binding motif was inserted into different locations of IL-2 fusion proteins, all resulting proteins bound heparin at pH 6 with similar high affinities (FIGS. 4F and 4G). Likewise, similar binding affinities were observed when another heparin targeting sequence was engineered into different sites of IL-2 fusion proteins (FIGS. 4H-4I). […]

[2] = tested on: MC38 colorectal cancer cells; test: MC38 colorectal cancer tumor growth inhibition study; format: in vivo, C57BL/6 mice; conditions: low dose (1 mg/kg IP BIW)
Procedure: C57BL/6 mice were subcutaneously inoculated with MC38 colorectal cancer cells. When the average tumor volume reached 70-90 mm^3, animals were randomized into 10 groups based on tumor volumes (n 7 or 6 mice per treatment group).
Tumor volumes were measured twice a week for the duration of the study.

Row | Molecule | enhanced binding to heparin in vitro compared to constructs lacking a heparin binding site [1] | efficacy (TGI) in low dose treatment groups [2]
1 | Construct EEE (protein, Synthetic: Construct EEE) [about 150 residues not written out]VRIQRKKEKMKETGPLGVRGGGGGSGGGGSELCDDDPPEIPHATFKAMAYKEGTILNCECKRGFRRIKSGSLYMLCTGNSSHSSWDNQCQCTSSATRNTTKQVTPQPEEQKERKTTEMQSPMQPVDQASLPGHCREPPPWENEATERIYHFVVGQMVYYQCVQGYRALHRGPAESVCKMTHGKTRWTQPQLICTGEMETSQFPGEEKPQASPEGRPESETSCLVTTTDFQIQTEMAATMETSIFTTEYQGSGGGG[human IgG1 Fc with changes not written out] | about 30 fold | superior efficacy over parental non-targeting constructs
2 | Construct NNNN: linker polypeptide-IL-2 fusion protein engineered with a heparin binding site; compared with Construct NNN (protein, Synthetic: Construct NNNN; HuIL2(C125S)-vRIQRKKEKMKET-MMPcs1_(G4S)x2-hu IL2Ra([…]; M25I)-GSGGGG- hu IgG1Fc- GGSGKLWvLPK, compared with Construct NNN) [about 150 residues not written out]VRIQRKKEKMKETGPLGVRGGGGGSGGGGSELCDDDPPEIPHATFKAMAYKEGTILNCECKRGFRRIKSGSLYMLCTGNSSHSSWDNQCQCTSSATRNTTKQVTPQPEEQKERKTTEMQSPMQPVDQASLPGHCREPPPWENEATERIYHFVVGQMVYYQCVQGYRALHRGPAESVCKMTHGKTRWTQPQLICTGEMETSQFPGEEKPQASPEGRPESETSCLVTTTDFQIQTEMAATMETSIFTTEYQGSGGGGDKTHTCPPCPAPEAAGGPSVFLFPPKPKDTLMISRTPEVTCVVVDVSHEDPEVKFNWYVDGVEVHNAKTKPREEQYNSTYRVVSVLTVLHQDWLNGKEYKCKVSNKALGAPIEKTISKAKGQPREPQVYTLPPSRDELTKNQVSLTCLVKGFYPSDIAVEWESNGQPENNYKTTPPVLDSDGSFFLYSKLTVDKSRWQQGNVFSCSVMHEALHNHYTQKSLSLSPGGGSGKLWVLPK | about 30 fold | 

— patent publication US20240417437A1, “Linker Polypeptides” (Trutino Biosciences Inc., priority 2021, published 2024)
